Patent US7271245B2, “Methods and compositions for inhibition of metastasis” (The Scripps Research Institute, priority 2004, dated 2007)

Assays:
BMS breast cancer cells = experiment: Antibody internalization (confocal microscopy); format: cell-based, human; conditions: FITC-labeled scFv, permissive temperature (37° C.)
Description: FIGS. 3A, 3B, 3C, 3D, 3E. scFv Bc-12 and Bc-15 inhibit αvβ3 mediated adhesive breast cancer cell functions. (A) Adhesion of BMS human breast cancer cells to fibrinogen (Fg), vitronectin (VN) or type I collagen (Col I) in the absence or presence of 3 μM Bc-12, Bc-15 or their RGE mutants Mut-12, Mut-15, compared to 200 μM GRGDSPK peptide (SEQ ID NO: 11). Protein coating concentrations: 10 μg/ml (VN, Col I) or 20 μg/ml (Fg). Adhesion time: 30 min at 37° C. (B) Effect of scFvs on haptotactic BMS cell migration toward a fibrinogen substrate (16 hrs at 37° C. in transwell chambers with or without 2 μM Bc-12, Bc-15 or their RGE mutants Mut-12 or Mut-15, compared to 200 μM GRGDSPK peptide) (SEQ ID NO: 11). (C) Effect of scFvs on breast cancer cell arrest during blood flow. […] Tumor cell adhesion was quantified by image acquisition at 30 predefined positions during blood flow. Left: representative images of platelet signal (thrombi, green fluorescence) and tumor cell signal (red fluorescence) at identical x,y positions. […]
Antibody internalization. Breast cancer cells grown in chamber slide wells were incubated with 20 μg/ml FITC-labeled scFv in serum free EMEM for 3 h either at 4° C. or 37° C., washed 10 times, fixed and permeabilized with 95% ethanol, stained with propidium iodide, mounted in antifade solution, and analyzed with a laser scanning confocal microscope.

[1] = test system: MDA-MB 435 breast cancer cells expressing constitutively activated integrin αvβ3D723R; experiment: Treatment of established lung metastasis in vivo; design: species or system mouse; conditions: 40 μg/dose i.v. day 7, 9, 11, 14, 16, 18; day 19; P<0.001 Mann-Whitney
Description: FIGS. 5A, 5B, 5C. ScFvs Bc-12 and Bc-15 prevent hematogenous breast cancer metastasis. (A) Left: Lungs of female SCID mice 32 days after i.v. injection with 1×10^5 BMS human breast cancer cells. The mice were treated with 50 μg Bc-12 or Bc-15 in 100 μl PBS (i.v.) on days 1, 2, 3 and 4. Controls received PBS only. Right: Numbers of lung surface metastases for each animal, horizontal lines indicate the median number of metastases per group. […] (B) Left: Histological sections of the above mouse lungs, stained with hematoxylin/eosin. Metastases were counted in six sets of three consecutive sections separated by 140 μm for each lung. Right: Number of metastases counted in sections of individual lungs, horizontal lines indicate median number of metastases per animal group. […] (C) Effect of Bc-15 treatment on established breast cancer metastasis in the lungs. Female SCID mice were injected i.v. with 5×10^5 DsRed2-tagged MDA-MB 435 breast cancer cells expressing constitutively activated integrin αvβ3D723R. […] Metastatic foci were enumerated by fluorescence microscopy on day 19. […]
To treat mice with established metastatic disease, 5×10^5 DsRed2 tagged MDA-MB 435 cells expressing constitutively activated αvβ3D723R were injected intravenously. […] The mice were euthanized on day 19 and lung metastases counted under a fluorescence microscope. […]

[2] = test system: BMS human breast cancer cells; experiment: Tumor cell adhesion under stationary conditions; format: cell-based; conditions: 3 μM scFv
Description: FIGS. 3A, 3B, 3C, 3D, 3E. scFv Bc-12 and Bc-15 inhibit αvβ3 mediated adhesive breast cancer cell functions. (A) Adhesion of BMS human breast cancer cells to fibrinogen (Fg), vitronectin (VN) or type I collagen (Col I) in the absence or presence of 3 μM Bc-12, Bc-15 or their RGE mutants Mut-12, Mut-15, compared to 200 μM GRGDSPK peptide (SEQ ID NO: 11). Protein coating concentrations: 10 μg/ml (VN, Col I) or 20 μg/ml (Fg). Adhesion time: 30 min at 37° C. (B) Effect of scFvs on haptotactic BMS cell migration toward a fibrinogen substrate (16 hrs at 37° C. in transwell chambers with or without 2 μM Bc-12, Bc-15 or their RGE mutants Mut-12 or Mut-15, compared to 200 μM GRGDSPK peptide) (SEQ ID NO: 11). (C) Effect of scFvs on breast cancer cell arrest during blood flow. Metastatic BMS cells, labeled with hydroethidine, were suspended in human blood (anticoagulated with 50 nM PPACK) and perfused over a collagen I matrix at a venous wall shear rate of 50 s^−1. Under these conditions, breast cancer cells arrest by αvβ3 mediated binding to adherent, thrombus forming platelets. Tumor cell adhesion was quantified by image acquisition at 30 predefined positions during blood flow. Left: representative images of platelet signal (thrombi, green fluorescence) and tumor cell signal (red fluorescence) at identical x,y positions. Right: Number of arrested tumor cells in the presence of 3 μM non-function blocking anti αv scFv Bc-20 or function blocking anti αvβ3 scFvs Bc-12 or Bc-15. (D) scFv Bc-15 is internalized by human breast cancer cells and reduces cell proliferation. Left: confocal images of BMS cells incubated for 4 hrs with FITC-Bc-15 at 4° C. (binding) versus 37° C. (allowing internalization). Right: Phase contrast images of BMS cell cultures 4 days after seeding in the presence of 2 μM RGE containing scFv Mut-15, or RGD containing Bc-15. […]
Cell adhesion and migration. Tumor cell adhesion under stationary conditions was analyzed as detailed earlier (19). […] Haptotactic tumor cell migration toward fibrinogen was analyzed in transwell chambers as detailed earlier. […]

B1: Bc-15: patient derived human scFv antibody against activated αvβ3 with RGD motif in CDR-H3; cDNA ATCC PTA-6304 (protein)
scFv: MAQVQLVQSGAEVKEPGSSVKVSCKASGGTFSSYAIYWVRQAPGQGLEWMGWINPDSGDTNSAQQFQGRVTMTRDTSISTAYMELSRLRSDDTAMYYCARPPRGDGPDYWGQGTLVTVSSGGGGGS[letters of about 100 residues not shown]RGLGGLVDYKDDDDK
For B1, the “binding and internalization by adherent cells” value (BMS breast cancer cells) was “efficiently bound and readily internalized”, the “number of metastatic foci within the lung tissue versus Mut-15” value [1] was “significantly fewer metastases than mice treated with Mut-15” and the “adhesion to collagen type I” value [2] was “no effect”. The attachment to vitronectin [2] was “inhibited by Bc-12 and Bc-15, but to a lesser degree” and the “adhesion to immobilized fibrinogen” value ([2]; 30 min at 37° C.) was “efficiently inhibited”.
